Assay results reported in the antibiotic and cytotoxicity screens of Wong et al. (2023).
Some of the results follow.

Assays:
HSkMC = human skeletal muscle cells; assay: cytotoxicity call (relative viability < 0.9); conditions: 10 µM
HepG2 = assay: cytotoxicity call (relative viability < 0.9); conditions: 10 µM
S. aureus RN4220 = assay: growth inhibition call (relative growth <= 0.2); conditions: 50 µM

CC(=O)Nc1ccc(S(=O)(=O)c2ccc(NC(C)=O)cc2)cc1
inactive: cytotoxicity call (HSkMC) | cytotoxicity call (HepG2) | growth inhibition call (S. aureus RN4220)

Cc1noc(C)c1C(=O)OCC(=O)NC1CC1
inactive: cytotoxicity call (HSkMC) | cytotoxicity call (HepG2) | growth inhibition call (S. aureus RN4220)

CC(C)NC(=O)Nc1ccc2c(c1)C(=O)N([C@H](C)CO)C[C@H](C)[C@H](CN(C)S(=O)(=O)c1cn(C)cn1)OCCCC[C@H](C)O2
inactive: cytotoxicity call (HSkMC) | cytotoxicity call (HepG2) | growth inhibition call (S. aureus RN4220)

C[C@@H]1CN([C@@H](C)CO)S(=O)(=O)c2ccc(C#CCN(C)C)cc2O[C@@H]1CN(C)Cc1ccncc1
inactive: cytotoxicity call (HSkMC) | cytotoxicity call (HepG2) | growth inhibition call (S. aureus RN4220)

Cc1cc(=O)nc2[nH][nH]c(=S)n12
inactive: cytotoxicity call (HSkMC) | cytotoxicity call (HepG2) | growth inhibition call (S. aureus RN4220)

C[C@@H]1CN([C@@H](C)CO)C(=O)c2cc(NS(=O)(=O)c3ccc(F)cc3)ccc2O[C@@H](C)CCCCO[C@H]1CN(C)S(=O)(=O)c1cn(C)cn1
inactive: cytotoxicity call (HSkMC) | cytotoxicity call (HepG2) | growth inhibition call (S. aureus RN4220)

C[C@@H]1CN([C@H](C)CO)C(=O)CCCn2nncc2CO[C@H]1CN(C)S(=O)(=O)c1ccc2ccccc2c1
inactive: cytotoxicity call (HSkMC) | cytotoxicity call (HepG2) | growth inhibition call (S. aureus RN4220)

Cc1ccc(S(=O)(=O)N(C)C[C@@H]2Oc3c(NS(C)(=O)=O)cccc3C(=O)N([C@@H](C)CO)C[C@@H]2C)cc1
inactive: cytotoxicity call (HSkMC) | cytotoxicity call (HepG2) | growth inhibition call (S. aureus RN4220)

CC(C)NC(=O)Nc1ccc2c(c1)CC(=O)N([C@H](C)CO)C[C@@H](C)[C@H](CN(C)S(=O)(=O)c1ccccc1)O2
inactive: cytotoxicity call (HSkMC) | cytotoxicity call (HepG2) | growth inhibition call (S. aureus RN4220)

CO[C@H]1CN(C)C(=O)c2ccc(NS(=O)(=O)c3cn(C)cn3)cc2OC[C@H](C)N(Cc2cccc(F)c2)C[C@@H]1C
inactive: cytotoxicity call (HSkMC) | cytotoxicity call (HepG2) | growth inhibition call (S. aureus RN4220)
